Reference: paper PMC4336329 (PLoS ONE, 2015)
Out of some 310,000 compounds screened, about 14,000 (4.5%) showed an effect of 50% or more. The effect is printed as a negative number. Some of the results follow.
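Note: peak tail current of the secondary pulse compared with the same well before compound.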

Each compound was assayed against human ether-à-go-go-related gene (hERG) potassium channel (human, UniProt Q12809) (assay: primary screen, population patch clamp on CHO cells stably expressing hERG).
Chain of human ether-à-go-go-related gene (hERG) potassium channel (Q12809 whole entry, looked up): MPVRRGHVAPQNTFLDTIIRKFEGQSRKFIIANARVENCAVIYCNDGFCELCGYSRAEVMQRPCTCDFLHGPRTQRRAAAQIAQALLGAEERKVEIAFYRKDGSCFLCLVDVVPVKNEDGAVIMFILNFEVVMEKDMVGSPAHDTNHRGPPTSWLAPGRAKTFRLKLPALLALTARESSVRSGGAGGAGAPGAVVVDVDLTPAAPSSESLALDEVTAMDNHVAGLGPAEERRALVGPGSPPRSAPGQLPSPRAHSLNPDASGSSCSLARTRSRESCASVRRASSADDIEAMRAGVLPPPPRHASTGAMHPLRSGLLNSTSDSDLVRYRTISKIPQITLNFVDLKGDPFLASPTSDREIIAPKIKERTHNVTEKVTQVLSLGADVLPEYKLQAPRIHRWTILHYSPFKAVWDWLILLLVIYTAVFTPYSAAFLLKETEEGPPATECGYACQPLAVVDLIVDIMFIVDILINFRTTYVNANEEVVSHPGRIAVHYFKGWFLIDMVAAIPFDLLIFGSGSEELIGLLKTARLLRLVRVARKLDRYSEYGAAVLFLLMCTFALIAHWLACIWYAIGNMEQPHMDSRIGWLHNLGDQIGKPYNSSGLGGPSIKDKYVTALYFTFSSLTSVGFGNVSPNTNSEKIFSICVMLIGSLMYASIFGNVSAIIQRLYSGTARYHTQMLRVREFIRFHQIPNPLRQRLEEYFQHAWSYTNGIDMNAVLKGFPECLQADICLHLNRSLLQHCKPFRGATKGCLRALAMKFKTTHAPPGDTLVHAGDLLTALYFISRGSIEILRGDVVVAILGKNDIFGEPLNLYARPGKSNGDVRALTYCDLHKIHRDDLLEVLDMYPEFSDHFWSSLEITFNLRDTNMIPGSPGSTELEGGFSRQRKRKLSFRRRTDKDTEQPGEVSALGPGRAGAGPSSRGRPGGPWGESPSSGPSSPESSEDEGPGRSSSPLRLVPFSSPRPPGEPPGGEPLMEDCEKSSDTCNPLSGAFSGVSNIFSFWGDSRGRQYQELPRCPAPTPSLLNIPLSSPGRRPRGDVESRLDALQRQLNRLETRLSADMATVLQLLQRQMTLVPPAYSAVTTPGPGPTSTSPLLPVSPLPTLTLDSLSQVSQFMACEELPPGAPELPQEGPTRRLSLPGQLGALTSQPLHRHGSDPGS
`C1=CC2CC1CC2CN1CCN(c2ccccc2)CC1` (centres unmarked) was tested, and the “hERG current change (%, negative = inhibition) at 10uM” value was -24.3%.
`CCOC(=O)c1nc(Nc2cccc(C)c2)c2ccccc2n1` was tested, and the “hERG current change (%, negative = inhibition) at 10uM” value was -6.72%.
`COc1ccc(CN(C)CC(=O)Nc2cccc(S(=O)(=O)N(C)c3ccccc3)c2)c(OC)c1` was tested, and the “hERG current change (%, negative = inhibition) at 10uM” value was -42.6%.
With `O=C(c1cccc(C(=O)N2CCC(O)(c3ccccc3)CC2)c1)N1CCC(O)(c2ccccc2)CC1` the “hERG current change (%, negative = inhibition) at 10uM” value was -13.3%.
With `Cn1ncc2c(Nc3ccccc3Cl)nc(Cl)nc21` the “hERG current change (%, negative = inhibition) at 10uM” value was 13.8%.
With `Cc1ccc2cc3c(N)c(C(=O)N4CC(=O)Nc5ccccc54)sc3nc2c1` the “hERG current change (%, negative = inhibition) at 10uM” value was 30.7%.
For `CC(C)C(=O)Nc1cc(=O)[nH]c2ncnn12`, the “hERG current change (%, negative = inhibition) at 10uM” value was 5.86%.
For `Cc1nc(-c2ccccc2)sc1C(=O)Nc1ccc(S(N)(=O)=O)cc1`, the “hERG current change (%, negative = inhibition) at 10uM” value was 6.53%.
`CC(Nc1nc(-c2ccccc2O)nc2ccccc12)c1ccccc1` (centres unmarked) was tested, and the “hERG current change (%, negative = inhibition) at 10uM” value was 5.73%.
`Br.CCCn1c(=N)n(CC(=O)O)c2ccccc21` was tested, and the “hERG current change (%, negative = inhibition) at 10uM” value was -5.8%.
For `CCCCN(CCCC)C(=O)c1cn(CC)c2cc(N3CCN(C)CC3)c(F)cc2c1=O.Cl`, the “hERG current change (%, negative = inhibition) at 10uM” value was 3.58%.
With `Cc1cccc(NC(=S)NNC(=O)c2csc(C)c2)c1` the “hERG current change (%, negative = inhibition) at 10uM” value was 15.9%.
In the case of `CCOC(=O)c1ccccc1NC(=S)N1CCC(C)CC1`, the “hERG current change (%, negative = inhibition) at 10uM” value is reported as -15.4%.
For `C[C@]12CCC(=O)C=C1CC[C@@H]1[C@@H]2CC[C@]2(C)C(=O)CC[C@@H]12`, the “hERG current change (%, negative = inhibition) at 10uM” value was -10.4%.
In the case of `CCN(CCO)Cc1csc2c(Br)cccc12.Cl`, the “hERG current change (%, negative = inhibition) at 10uM” value is reported as -29.8%.
In the case of `CCN(CC(=O)Nc1ccccc1C(F)(F)F)C(=O)CCOc1ccc(C)cc1`, the “hERG current change (%, negative = inhibition) at 10uM” value is reported as -13.1%.
With `COc1ccc(N(C(=O)Cn2nnc3ccccc32)C(C(=O)NCc2ccco2)c2cccnc2)cc1` (centres unmarked) the “hERG current change (%, negative = inhibition) at 10uM” value was 9.77%.
With `CCn1nnnc1SCC(=O)N1c2ccccc2NC(=O)CC1C` (centres unmarked) the “hERG current change (%, negative = inhibition) at 10uM” value was 3.95%.
For `Cc1ccc(-c2csc(NC(=S)NC(=O)c3cccs3)n2)cc1`, the “hERG current change (%, negative = inhibition) at 10uM” value was 11.3%.
For `CC(/C=N/NC(=O)c1sc(N)nc1C)=C\c1ccccc1`, the “hERG current change (%, negative = inhibition) at 10uM” value was 13.2%.
For `CCCCOC(=O)NC1CCS(=O)(=O)C1` (centres unmarked), the “hERG current change (%, negative = inhibition) at 10uM” value was 18.6%.
For `O=C(c1ccco1)N1CCc2ccccc21`, the “hERG current change (%, negative = inhibition) at 10uM” value was -3.68%.
`Cc1ccc(NC(=O)CO/N=C(\N)c2nonc2N)cc1` was tested, and the “hERG current change (%, negative = inhibition) at 10uM” value was 6.19%.
For `COc1ccc(C(c2nnnn2C(C)C)N2CCN(C(=O)c3ccco3)CC2)cc1` (centres unmarked), the “hERG current change (%, negative = inhibition) at 10uM” value was -19%.
For `CCc1cccc(CC)c1-n1c(SCn2nnc3ccccc3c2=O)nnc1-c1cccnc1`, the “hERG current change (%, negative = inhibition) at 10uM” value was -21%.
In the case of `CCOCCCNC(=O)C(c1ccc(C)cc1)N(Cc1cccs1)C(=O)CNC(C)=O` (centres unmarked), the “hERG current change (%, negative = inhibition) at 10uM” value is reported as -23.9%.
For `O=c1cc(C(F)(F)F)[nH]c2c(C(F)(F)F)cccc12`, the “hERG current change (%, negative = inhibition) at 10uM” value was 15.5%.
With `CC(=O)c1ccc(N2CCCCCC2)c(F)c1` the “hERG current change (%, negative = inhibition) at 10uM” value was -6.96%.
For `CC(SCC(=O)O)c1nc2ccccc2[nH]1` (centres unmarked), the “hERG current change (%, negative = inhibition) at 10uM” value was 31.7%.
`COc1ccc(-c2nnc(SCC(=O)N3CCCC3)o2)cc1OC` was tested, and the “hERG current change (%, negative = inhibition) at 10uM” value was 15.9%.
In the case of `COc1ccccc1NC(=O)C1CCCN(S(=O)(=O)c2ccc3[nH]c(=O)ccc3c2)C1` (centres unmarked), the “hERG current change (%, negative = inhibition) at 10uM” value is reported as -33.9%.
In the case of `COC(=O)Cc1c(C)nc2nc(NCc3ccccc3OC)[nH]n2c1=O`, the “hERG current change (%, negative = inhibition) at 10uM” value is reported as 11.2%.
With `CC(C)c1ccc(O)c(NC(=S)NC(=O)c2ccc3c(c2)OCO3)c1` the “hERG current change (%, negative = inhibition) at 10uM” value was 1.62%.
`COCCN(C(=O)C(=O)NC1CCCC1)C(C(=O)NC1CCCC1)c1ccccc1F` (centres unmarked) was tested, and the “hERG current change (%, negative = inhibition) at 10uM” value was 21.8%.
In the case of `CCOC(=O)N1CCC(NC(=O)c2ccc(CS(=O)c3cccc(Cl)c3)o2)CC1` (centres unmarked), the “hERG current change (%, negative = inhibition) at 10uM” value is reported as 14.3%.
`Cc1ccc(C)c2sc(NC(=O)c3nc4ccccc4s3)nc12` was tested, and the “hERG current change (%, negative = inhibition) at 10uM” value was 2.76%.
For `Cc1ccc(Cn2nc(C)c(NC(=O)c3cc(-c4ccc5c(c4)OCO5)on3)c2C)cc1`, the “hERG current change (%, negative = inhibition) at 10uM” value was 11.6%.
With `O=S1(=O)CCOC[C@H](CC2CCCCC2)N1Cc1cccc(C(F)(F)F)c1` the “hERG current change (%, negative = inhibition) at 10uM” value was 2.78%.
For `COc1ccc(CCNC(=O)C(=O)NCC2OCCN2S(=O)(=O)c2ccc(C)cc2)cc1OC` (centres unmarked), the “hERG current change (%, negative = inhibition) at 10uM” value was -23.8%.
`CN(C)S(=O)(=O)N1CCN(S(=O)(=O)N2CCOCC2)CC1` was tested, and the “hERG current change (%, negative = inhibition) at 10uM” value was 17.2%.
For `Cc1nc(CSc2ccc(Cl)cc2)cc(NCc2ccccc2)n1`, the “hERG current change (%, negative = inhibition) at 10uM” value was -25.2%.
For `CCN(CC(=O)Nc1c(F)cccc1F)C(=O)c1cccc(S(=O)(=O)N2CCN(c3ccccc3)CC2)c1`, the “hERG current change (%, negative = inhibition) at 10uM” value was 2.51%.
For `Cc1c(Cl)c([N+](=O)[O-])nn1CC(=O)NCCCN1CCOCC1`, the “hERG current change (%, negative = inhibition) at 10uM” value was 0.126%.
With `CCN(CC(=O)Nc1ccccc1OC)C(=O)CSCc1c(C)noc1C` the “hERG current change (%, negative = inhibition) at 10uM” value was 17.4%.
